# Results from PubChem BioAssay AID1865 (National Center for Advancing Translational Sciences (NCATS), 2009).
# About 540 (0.19%) of roughly 280,000 compounds were called active. Inconclusive results, whose numbers are uncertain, are shown with a selection of clear calls. The call rests on the fitted dose curve; in most records, active means well fitted activation curve with a large enough effect; inconclusive means small, poorly fitted or top-dose-only effect; inactive means flat fitted curve, though single readings scatter. A potency beside an inconclusive call is a rough fit, not a confirmed value.
# Test: Quantitative High-Throughput Screen for Regulators of Epigenetic Control; further: nearly all actives have a fitted effect of over 60% in size; on GFP activation: % of control where 0% means no effect
# Conditions: murine LDR cells, GFP reporter derepression, 30 h; GFP activation: at 53.9 µM (top of the series)
# Procedure, shortened: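 GFP-positive cell count by laser-scanning cytometry (objects 20–120 um) after 30 h, 37 C compound exposure of murine LDR cells; reporter is CMV-GFP integrated at a silenced locus, inducible by HDAC or DNMT inhibitors.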
# Potency means the concentration at half of the fitted maximal effect; tags describe the fitted curve by direction and shape.
SMILES,Potency,GFP activation
CCOc1ccc(-c2csc(/C(C#N)=C\c3ccc(O)c([N+](=O)[O-])c3)n2)cc1,inactive,–
CCNc1ccc(Br)cc(C(=O)/C=C/c2c(Cl)cccc2Cl)c1=O,"inconclusive: 28.2 µM [activator, single point]",–
CCCCCn1c(N)c(C#N)c2nc3ccccc3nc21,inactive,–
c1csc(-c2nnsc2-c2nc3ccccc3[nH]2)c1,"inconclusive: 35.5 µM [activator, single point]",–
Cc1nnn(-c2nonc2N)c1C(=O)N/N=C/c1cccc2ccccc12,inactive,–
Cc1ccc(C(=O)NC(=S)Nc2ccccc2C(F)(F)F)cc1C,inactive,–
Cc1ccc(C)c(NC(=O)Cn2c(=O)n(Cc3cccs3)c(=O)c3cccnc32)c1,"inconclusive: 31.6 µM [activator, single point]",–
Cn1c(=O)c([N+](=O)[O-])c(-n2ccnc2)c2ccccc21,"inconclusive: 10 µM [activator, partial curve]",–
CCCCOC(=O)c1ccc(NC(=O)/C(C#N)=C/c2ccc(-c3ccccc3)o2)cc1,"inconclusive: 15.8 µM [activator, partial curve]",–
O=C(CCCn1c(=O)c2ccccc2n(CC(=O)Nc2ccc(F)cc2F)c1=O)NCc1ccccc1Cl,"inconclusive: 35.5 µM [activator, single point]",–
C=C(NC(=O)C(=C)NC(=O)c1csc(C2=N[C@@H]3c4csc(n4)[C@@H]4NC(=O)c5csc(n5)[C@@H]([C@](C)(O)[C@H](C)O)NC(=O)[C@@H]5CSC(=N5)/C(=C/C)NC(=O)[C@@H]([C@H](C)O)NC(=O)c5csc(n5)[C@]3(CC2)NC(=O)[C@@H](C)NC(=O)C(=C)NC(=O)[C@@H](C)NC(=O)[C@@H]([C@@H](C)CC)N[C@H]2C=Cc3c([C@H](C)O)cc(nc3[C@@H]2O)C(=O)O[C@H]4C)n1)C(N)=O,"inconclusive: 12.6 µM [activator, single point]",–
CCOC(=O)C(=Cc1c[nH]c2ccc(S(=O)(=O)N(C)C)cc12)C(=O)OCC,"inconclusive: 31.6 µM [activator, single point]",–
CCCCCCn1c(=O)[nH]c2nc3cc(N)ccc3nc2c1=O,"inconclusive: 12.6 µM [activator, partial curve]",–
O=C(COc1ccccc1[N+](=O)[O-])N(Cc1ccccc1)c1ccccn1,inactive,–
CCOC(=O)CN1C(=O)N[C@@H](c2ccccc2)C(C(C)=O)=C1C,"inconclusive: 20 µM [activator, single point]",–
Cc1cc(O)c(-c2cc(O)c(C)cc2O)cc1O,"inconclusive: 3.55 µM [activator, single point]",–
BrC(=C\c1ccccc1)/C=N/N1CCN(c2ccccn2)CC1,active: 22.4 µM,–
CCOc1ccc(OCC)c(Nc2nc3ccc(Cl)cc3n3cnnc23)c1,active: 22.4 µM,–
Cc1onc(-c2ccccc2Cl)c1C(=O)N1CCN(c2cccc(Cl)c2)CC1,inactive,–
CC(C)C1N=C(c2ccc3c(c2)OCO3)CC(c2ccccc2O)N1 (configuration not stated),"inconclusive: 20 µM [activator, single point]",–
O=C(O)CNC(=S)N(Cc1ccccc1)Cc1cccs1,"inconclusive: 6.31 µM [activator, single point]",–

SMILES,Potency,GFP activation
O=[N+]([O-])c1cc(CN2CCN(c3ccccc3)CC2)c(O)c2ncccc12,"inconclusive: 25.1 µM [activator, single point]",–
COc1cc(C(=O)NCC(=O)N/N=C/c2ccccn2)cc(OC)c1OC,inactive,–
CCN1CCN(c2cc3c(cc2F)c(=O)c(S(=O)(=O)c2cc(C)cc(C)c2)cn3CC)CC1,"inconclusive: 35.5 µM [activator, single point]",–
c1ccc(Nc2nc(NCC3CCCO3)c3ccccc3n2)cc1 (configuration not stated),inactive,–
CCOC(=O)c1ccc2c(c1)N(CC(=O)Nc1ccc(CC)cc1)C(=O)c1ccccc1S2,"inconclusive: 14.1 µM [activator, single point]",–
Cc1ccc(-c2ccc3nnc(SCC(=O)NCC4CCCO4)n3n2)cc1 (configuration not stated),"inconclusive: 3.16 µM [activator, single point]",–
c1cncc(CNc2nc(-c3ccoc3)nc3ccccc23)c1,inactive,–
COc1ccc2ccccc2c1/C=N/NC(=S)Nc1cc(S(=O)(=O)N2CCOCC2)ccc1N1CCOCC1,inactive,–
Cc1sc2nc3c4ccccc4c(NCc4ccco4)nn3c(=O)c2c1C,"inconclusive: 31.6 µM [activator, single point]",–
CCOc1ccc(C2CC(c3c(O)c4ccccc4oc3=O)=NN2c2ccccc2)cc1OC (configuration not stated),"inconclusive: 17.8 µM [activator, single point]",–
COc1cccc(/C=N/Nc2ncc(C(F)(F)F)cc2Cl)c1O,"inconclusive: 17.8 µM [activator, partial curve]",–
Cc1ccccc1Nc1nnc(SCc2cc(=O)n3ccsc3n2)s1,inactive,–
Cn1cccc1/C=C1\SC(=Nc2ccc(O)cc2)NC1=O,"inconclusive: 28.2 µM [activator, single point]",–
COc1ccc(-c2nnn(CC(=O)c3c[nH]c4ccccc34)n2)cc1OC,inactive,–
COc1cccc(NC(=O)Cn2c(=O)n(Cc3ccco3)c(=O)c3cc(OC)c(OC)cc32)c1,"inconclusive: 35.5 µM [activator, single point]",–
COc1ccccc1-c1cc(C(=O)N/N=C/C=C/c2ccccc2[N+](=O)[O-])c2ccccc2n1,inactive,–
COCC#Cc1ccc(C2NC(C(=O)O)CCC2C)cc1 (configuration not stated),–,inactive: 0% [at 10.1 µM]
CCN(CC)c1ccc(/C=C2\C(=O)N(c3nnc(C)c(=O)[nH]3)N=C2C)cc1,"inconclusive: 22.4 µM [activator, single point]",–
O=C(/C=C/c1ccccc1)CC(O)(c1ccccc1)C(F)(F)F (configuration not stated),"inconclusive: 35.5 µM [activator, single point]",–
O=C(N/N=C/c1ccccn1)c1sc2ccccc2c1Cl,"inconclusive: 35.5 µM [activator, single point]",–
CCOC(=O)c1sc2cc([N+](=O)[O-])cc(SCC(C)C)c2c1N,active: 3.16 µM,–
